Assay results: the RNAGym collection of RNA variant scans (doi:10.1101/gad.245936.114)
Variants at the background level are over-represented here.

B1: tRNA (parent)
chain: CUCUCGGUAGCCAAGUUGGUUUAAGGCGCAAGACUUUAAUUUAUCACUACGAAAUCUUGAGAUCGGGCGUUCGACUCGCCCCCGGGAGAUUUUUUCCUCGAGCAA

Variants of: B1
Experiment: nonsense suppression (GFP-seq) (ratio to wild type); higher = more function; SUP4oc tRNA, yeast GFP reporter sort-seq
Summary of the method: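 To measure nonsense suppression, tRNA variants from a library carrying ~3% random mutations were integrated into the yeast genome alongside RFP and a GFP ochre reporter under galactose control. Growth took place in raffinose/galactose medium supplemented with 80 mg/L adenine, followed by sorting into GFP/RFP bins and Illumina sequencing of each bin (phred ≥30). For each variant with ≥100 reads and ≥30 cells, the bin median GFP/RFP values were weighted by its estimated cell share per bin and referenced to the unmutated parent tRNA.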

Variant | nonsense suppression
U16C A74C C75A | ≤ 0.026
U16C A74C G78U G85C | ≤ 0.026
U16C A74G | ≤ 0.026
U16C C34A C75U | ≤ 0.026
U16C C34G | ≤ 0.026
U16C C34G C64G C79A | ≤ 0.026
U16C C34U | ≤ 0.026
U16C C77A | ≤ 0.026
U16C C81A | ≤ 0.026
U16C C82A G85A | ≤ 0.026
U16C C83A | ≤ 0.026
U16C G18C | ≤ 0.026
U16C G18U A24U C79U | ≤ 0.026
U16C G18U C27A G88A | ≤ 0.026
U16C G18U G28C G73U | ≤ 0.026
U16C G19U U21G U22A U55C G85A | ≤ 0.026
U16C G25C U57A G84A | ≤ 0.026
U16C G32A U57C G66A G84A | ≤ 0.026
U16C G59C | ≤ 0.026
U16C G59U | ≤ 0.026
U16C G61U G73A | 0.438
U16C G67U | ≤ 0.026
U16C G69C C80U | ≤ 0.026
U16C G73C G86U | ≤ 0.026

Variant | nonsense suppression
U16C G73U C79U | ≤ 0.026
U16C U17A U20G U35C G86U | ≤ 0.026
U16C U17C A23G C29U U55A G88C | ≤ 0.026
U16C U17C U21G G25U U57G | ≤ 0.026
U16C U17G | 1.07
U16C U17G A30C G78C | ≤ 0.026
U16C U20C A23U C29U A31G | ≤ 0.026
U16C U20C C29A U70A | ≤ 0.026
U16C U21C | 1.03
U16C U22A A31C | ≤ 0.026
U16C U22C G61C | 0.207
U16C U55A C75A G88C | ≤ 0.026
U16C U55A U76G C77G G85A G88A | ≤ 0.026
U16C U55C G78C G88A | ≤ 0.026
U16C U57C | ≤ 0.026
U16C U57C U58C C68U U70C C79G G86U | ≤ 0.026
U16C U58A G59U A62C | ≤ 0.026
U16C U63C C79U | 0.0784
U16C U70A | ≤ 0.026
U16C U70C | ≤ 0.026
U16C U71C | ≤ 0.026
U16G | 1
U16G A23C G59C G88A | ≤ 0.026
U16G A23G | 0.129

Variant | nonsense suppression
U16G A23G G69U | ≤ 0.026
U16G A23U C29U U55C G61A | ≤ 0.026
U16G A24C G26C G69U U76G C81A | ≤ 0.026
U16G A24U | 0.221
U16G A30C | ≤ 0.026
U16G A30C A31G U55A U57A | ≤ 0.026
U16G A54C G66U C79A G85U | ≤ 0.026
U16G A62G C83G | ≤ 0.026
U16G A62U G88U | ≤ 0.026
U16G C27G | ≤ 0.026
U16G C27U A33U U35A U55G | ≤ 0.026
U16G C34A G67U A89U | ≤ 0.026
U16G C34G | ≤ 0.026
U16G C34G G84A | ≤ 0.026
U16G C80G | ≤ 0.026
U16G C82A | ≤ 0.026
U16G C82A A87C | ≤ 0.026
U16G C83U | 0.223
U16G G19U | ≤ 0.026
U16G G19U G66C | ≤ 0.026
U16G G25A U35G U55G G65A | ≤ 0.026
U16G G25C U55A | ≤ 0.026
U16G G25U G67A C81G | ≤ 0.026
U16G G26A G61C | ≤ 0.026

Variant | nonsense suppression
U16G G26C U58G | ≤ 0.026
U16G G28A C77A C82A | ≤ 0.026
U16G G28U | ≤ 0.026
U16G G32C C75A | ≤ 0.026
U16G G59A | ≤ 0.026
U16G G61C G69A | ≤ 0.026
U16G G66A G67C | ≤ 0.026
U16G G67U | ≤ 0.026
U16G G73C | ≤ 0.026
U16G G78C | 0.113
U16G U17A G19A C27A | ≤ 0.026
U16G U17A G66C C75A | ≤ 0.026
U16G U17C | 1.05
U16G U17C A33U G84U | ≤ 0.026
U16G U20A C27A | ≤ 0.026
U16G U35G G66C G69U C79U | ≤ 0.026
U16G U55C C77G C82U | ≤ 0.026
U16G U55G G88C | ≤ 0.026
U16G U57A A74G C79A | ≤ 0.026
U16G U57G U58C G66U C77A | ≤ 0.026
U16G U63A | 1.09
U16G U70A C82A | ≤ 0.026
U17A A23C | ≤ 0.026
U17A A23C C68G | ≤ 0.026

Variant | nonsense suppression
U17A A23C G25U G59C A60G G61C | ≤ 0.026
U17A A23C U71C | ≤ 0.026
U17A A23G A31C | ≤ 0.026
U17A A24C C29U A30G U63C U70C G73A A74C C80U | ≤ 0.026
U17A A24U A60C | ≤ 0.026
U17A A24U G25U G32C G73A A89G | ≤ 0.026
U17A A31G C72G U76A G78U | ≤ 0.026
U17A A33G | 0.104
U17A A60C | 0.19
U17A A62U C75G | ≤ 0.026
U17A A62U U76G | ≤ 0.026
U17A A74C G84C | ≤ 0.026
U17A A74G G86A | ≤ 0.026
U17A A74U C79G | ≤ 0.026
U17A C27A C77U A87G G88C | ≤ 0.026
U17A C27G A54U | ≤ 0.026
U17A C27U A31U G59A G67A U76G | ≤ 0.026
U17A C27U A62U A89G | ≤ 0.026
U17A C27U U58G G61C C75A G78C | ≤ 0.026
U17A C29U U76G G78C | ≤ 0.026
U17A C34A C80G | ≤ 0.026
U17A C34A G59A | ≤ 0.026
U17A C56G A60U U76C | ≤ 0.026
U17A C64U C72U | ≤ 0.026

Variant | nonsense suppression
U17A C79A | ≤ 0.026
U17A C83G | ≤ 0.026
U17A G18C A87U | ≤ 0.026
U17A G18C C64G G69A U70G | ≤ 0.026
U17A G18U A23U G78A | ≤ 0.026
U17A G19A U63C C72G G88A | ≤ 0.026
U17A G19U U22C G85U | ≤ 0.026
U17A G25C | 0.068
U17A G26A A33C | ≤ 0.026
U17A G26U | ≤ 0.026
U17A G26U A74C | ≤ 0.026
U17A G26U G28C C83G | ≤ 0.026
U17A G61C | 0.665
U17A G65U G69A C75A | ≤ 0.026
U17A G66A G85C | ≤ 0.026
U17A G66U A89G | ≤ 0.026
U17A G67U | ≤ 0.026
U17A G67U C72G C77G | ≤ 0.026
U17A G67U C72U C77G | ≤ 0.026
U17A G84C | ≤ 0.026
U17A G85C | ≤ 0.026
U17A G85U G88U | ≤ 0.026
U17A U20C C83A | ≤ 0.026
U17A U20G G28A C29A | ≤ 0.026

Variant | nonsense suppression
U17A U20G G32A G61A C80U | ≤ 0.026
U17A U21A | 0.966
U17A U21C G66A | ≤ 0.026
U17A U21C G85A | 1.06
U17A U21G C64U | ≤ 0.026
U17A U22G | 1.03
U17A U55C | 0.176
U17A U55G | ≤ 0.026
U17A U58G G59C U71C | ≤ 0.026
U17A U70G | ≤ 0.026
U17A U71A | ≤ 0.026
U17A U76C | 1.06
U17C A23C | ≤ 0.026
U17C A23C A62G | ≤ 0.026
U17C A23G G66C U71G | ≤ 0.026
U17C A24C | 0.276
U17C A24G A89U | ≤ 0.026
U17C A24G C72U | ≤ 0.026
U17C A30G | 0.326
U17C A30G A31G | 0.0827
U17C A31C | ≤ 0.026
U17C A33C A54G G66C | ≤ 0.026
U17C A33G | 0.0608
